Measured values published in PubChem BioAssay AID1721 (National Center for Advancing Translational Sciences (NCATS), 2009).
The whole screen tested about 290,000 compounds, of which about 1,100 (0.38%) were called active. Inconclusive results, whose numbers are uncertain, are shown with a selection of clear calls. Calls follow the shape of the dose curve; as a rule, active = well fitted inhibition curve with a large enough effect; inconclusive = small, poorly fitted or top-dose-only effect, or another doubt; inactive = no such curve, though single readings can be large or run the other way. Where the call is inconclusive, the potency comes from a doubtful curve fit.

Molecular target: Pyruvate kinase (Leishmania mexicana) (UniProt Q27686)
UniProt Q27686, sequence (Q27686 whole entry, looked up): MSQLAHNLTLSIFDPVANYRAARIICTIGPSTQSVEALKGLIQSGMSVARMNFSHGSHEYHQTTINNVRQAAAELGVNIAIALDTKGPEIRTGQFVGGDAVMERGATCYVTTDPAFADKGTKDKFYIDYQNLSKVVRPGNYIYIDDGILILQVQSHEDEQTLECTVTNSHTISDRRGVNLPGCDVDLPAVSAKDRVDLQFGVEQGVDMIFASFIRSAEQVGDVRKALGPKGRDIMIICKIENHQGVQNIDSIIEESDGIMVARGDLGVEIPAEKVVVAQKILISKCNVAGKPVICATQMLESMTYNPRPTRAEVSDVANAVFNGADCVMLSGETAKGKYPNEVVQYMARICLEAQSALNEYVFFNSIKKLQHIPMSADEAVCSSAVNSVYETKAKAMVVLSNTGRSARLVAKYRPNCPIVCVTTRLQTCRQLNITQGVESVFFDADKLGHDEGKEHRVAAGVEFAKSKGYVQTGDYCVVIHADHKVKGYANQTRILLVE
Experiment: qHTS Assay for Inhibitors of Leishmania Mexicana Pyruvate Kinase (LmPK)
Conditions: purified LmPK, Kinase-Glo ATP luminescence, 1 h; series mostly up to 57.5 µM
Summary of the method: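 ATP generated from ADP (0.1 mM) and PEP (0.5 mM) by 0.1 nM LmPK over 1 h at room temperature (pH 7.2 imidazole buffer) was detected by coupled luciferase luminescence. Values were normalized to uninhibited and no-enzyme wells.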
Potency is read from the fitted curve at half-maximal effect; tags tell the direction and shape of the fitted curve.

SMILES	Potency
COc1ccc(-c2cc3c(nn2)-c2ccccc2C3=O)cc1	inconclusive: 3.55 µM [falling, full curve]
O=C(O)CC(Cc1ccccc1)C(=O)NCC12CC3CC(CC(C3)C1)C2 (stereo not drawn)	inactive
O=C(NCC1CCCO1)c1csc(Nc2cccc3ccccc23)n1 (stereo not drawn)	active: 14.1 µM
S=c1[nH]nc(-c2cc(-c3ccsc3)n[nH]2)n1-c1ccccc1	active: 10 µM
c1ccc2nc(-c3ccc(N4CCOCC4)cc3)ccc2c1	inconclusive: 10 µM [falling, partial curve]
O=c1cc(-c2ccccc2)[nH]c2nc3ccccc3n12	inconclusive: 14.1 µM [falling, partial curve]
COc1ccc2c(c1)c1ccc3c(c1n2C)C(=O)C=CC3=O	inconclusive: 7.94 µM [falling, partial curve]
COc1ccccc1-n1c(-c2ccco2)n[nH]c1=S	inconclusive: 35.5 µM [falling, single point]
COc1cccc(NC(=O)NCc2ccccn2)c1	inactive
O=C1C(C=Nc2ccccc2)=C(O)c2ccccc21	active: 3.55 µM
Cc1ccc(-n2c(-c3cccnc3)n[nH]c2=S)c(C)c1	active: 12.6 µM
Cc1cc2nc(CS)[nH]c2cc1C	inconclusive: 25.1 µM [falling, partial curve]
CCOc1cc(/C=C/c2ccc3cccc([N+](=O)[O-])c3n2)ccc1O	inactive
Cc1cc(C(=O)Nc2ccc3c(c2)OCCO3)c(C)o1	inconclusive: 15.8 µM [falling, partial curve]
CC(=O)c1ccc(Nc2nc(C)cc(C)n2)cc1	inactive
CSc1ncc(/C=C2/C(=O)NC(=O)N(c3ccc(C)cc3)C2=O)cn1	inactive
CCOCCCNC1=C(Cl)C(=O)c2ccccc2C1=O	inconclusive: 28.2 µM [falling, single point]
O=C(Nc1ccccc1F)Nc1ccccc1F	inconclusive: 15.8 µM [falling, partial curve]
COc1cc(OC)cc(C(=O)N2CCN(C(=O)c3ccc(-c4ccccc4)cc3)CC2)c1	inconclusive: 25.1 µM [falling, partial curve]
Cc1cccc(-c2n[nH]c(=S)n2-c2ccccc2)c1[N+](=O)[O-]	inconclusive: 12.6 µM [falling, partial curve]
O=C(c1ccc2c(c1)OCCCO2)c1cccs1	inconclusive: 14.1 µM [falling, partial curve]
Cc1occc1C(=O)N/N=C/c1ccccc1[N+](=O)[O-]	active: 14.1 µM
Cc1cc(C)n(CCN(C)Cc2nc(Cc3ccccc3F)no2)n1	active: 28.2 µM
Cc1ccc(OCc2ccc(C(=O)N3CCOCC3)cc2)cc1C	inconclusive: 22.4 µM [falling, partial curve]
CC(C)Cn1c(Cc2ccccc2)n[nH]c1=S	active: 11.2 µM
CCc1ccc(C2=NN(S(C)(=O)=O)C(c3cccs3)C2)cc1 (stereo not drawn)	active: 22.4 µM
S=c1[nH]nc(Cc2noc3ccccc23)n1-c1ccc(Cl)cc1	inconclusive: 11.2 µM [falling, partial curve]

SMILES	Potency
Cn1c(-c2ccco2)nc2cc3ccccc3cc21	active: 12.6 µM
C/C(=N\NC(=O)OC(C)(C)C)c1ccc[nH]1	inconclusive: 22.4 µM [falling, partial curve]
C(=N\Nc1ccc2ccccc2n1)/c1ccc2c(c1)OCCO2	inconclusive: 28.2 µM [falling, single point]
O=C1CCCc2c1cc(C(=O)Nc1ccc(Br)cn1)c(=O)n2-c1ccccc1	inconclusive: 22.4 µM [falling, single point]
CC(C)NC(=O)c1ccc2c3n(nc2c1)-c1ccccc1CO3	active: 12.6 µM
COc1cc(/C=C2/SC(=O)NC2=O)ccc1OC(=O)c1ccco1	inconclusive: 35.5 µM [falling, single point]
COc1ccccc1NC(=S)N(Cc1ccco1)Cc1cc2cc(C)ccc2[nH]c1=O	inactive
Cc1ccc(NC(=O)/C(CN(C)C)=N\O)cc1	inactive
CCOC(=O)c1ccc(NC(=S)Nc2ccccn2)cc1	inactive
Cc1cc(C(=O)O)cc(S(=O)(=O)Nc2ccccc2C(=O)NC(C)c2ccccc2)c1C (stereo not drawn)	inactive
CCn1cc(C(=O)O)c(=O)c2cc(F)c(N3CCN(C(=S)NC(=O)c4ccc(F)c(F)c4)CC3)cc21	inconclusive: 12.6 µM [falling, partial curve]
CCOC(=O)C1=C(N)OC(CCl)=C(C#N)C1c1ccsc1 (stereo not drawn)	inactive
Oc1ccccc1-c1n[nH]c(=S)n1Cc1ccccc1	inconclusive: 28.2 µM [falling, single point]
O=c1[nH]c(=S)[nH]c(O)c1N=Nc1ccc2c(c1)OCCO2	inconclusive: 7.08 µM [falling, partial curve]
CCCOc1ccc(C(=O)Nc2ccc(Cl)cn2)cc1	inconclusive: 12.6 µM [falling, partial curve]
CCc1ccc(-c2nc(CCl)cs2)cc1	inconclusive: 12.6 µM [falling, partial curve]
CO/N=C(/C)CCS(=O)(=O)c1ccccc1	inactive
Cc1ccccc1CNC(=O)c1ccc2nc(N3CCOCC3)sc2c1	inactive
O=C1Nc2ccccc2/C1=N\N=C\C1=C(N2CCOCC2)C(=C\c2ccccc2)/CC1	inconclusive: 14.1 µM [falling, partial curve]
COc1ccc(C)cc1-n1nc2ccccc2n1	inactive
COc1ccc(-n2ncc3c(N4CCCCC4)ncnc32)cc1	active: 15.8 µM
CCCNC(=S)N1CCN(c2nc(-c3cccc(OC)c3)cs2)CC1	inactive
O=C(Nc1ccc(N2CCOCC2)cc1)c1cn2ccccc2n1	active: 2.82 µM
Cc1cccc(NC(=O)c2ccccn2)c1C	inconclusive: 35.5 µM [falling, single point]
CCc1nnc(NC(=O)CSc2nnc(-c3ccccc3O)o2)s1	inactive
Cc1ccccc1-n1c([C@@H]2C[C@H]2c2ccccc2)n[nH]c1=S	active: 11.2 µM
